Some of the results follow. At the low end of the ranking the order means little. The protein was read in a cell extract, so binding may be indirect.

This experiment concerns the target T1, HNF4alpha2 (COS-7 nuclear extract) (UniProt P41235).
T1 sequence: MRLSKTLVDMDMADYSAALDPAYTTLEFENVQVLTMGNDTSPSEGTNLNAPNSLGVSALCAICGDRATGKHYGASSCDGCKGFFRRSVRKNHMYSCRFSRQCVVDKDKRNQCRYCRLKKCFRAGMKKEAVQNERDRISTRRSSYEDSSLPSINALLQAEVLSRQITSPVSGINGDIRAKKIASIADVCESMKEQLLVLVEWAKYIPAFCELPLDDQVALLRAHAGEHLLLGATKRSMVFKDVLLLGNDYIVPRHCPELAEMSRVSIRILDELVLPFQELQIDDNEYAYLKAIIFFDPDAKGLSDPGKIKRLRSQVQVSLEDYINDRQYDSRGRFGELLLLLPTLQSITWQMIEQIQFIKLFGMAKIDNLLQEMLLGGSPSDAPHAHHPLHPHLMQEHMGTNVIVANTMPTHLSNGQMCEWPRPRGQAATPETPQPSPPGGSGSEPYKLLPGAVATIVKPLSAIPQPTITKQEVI
The experiment is described as follows: protein-binding microarray. The conditions noted are these: COS-7 nuclear extract on double-stranded Agilent 4x180k PBM; binding buffer, salt, pH and temperature not given; high values mean tight binding; double strand, one strand shown; sequences stand for … in …GCCTAGGGAGATTAGAGTATCGGTCGA
With CAGGAAGAACTGGTCCGCCTTCATTCCTAG, the binding signal (log2 normalized intensity) is -1.09.

GGGAGTTAATCACAGGATTTAAAGAATTCC: the binding signal (log2 normalized intensity) was -1.11.

With AACAGGAGCAAATATCGCTTGTCTTACGGA, the binding signal (log2 normalized intensity) is -1.13.

On to GAGTGCAGGTGGGAGGGGTGGACTTTGGCT, for which the binding signal (log2 normalized intensity) came out at 5.38.

Consider ACTGGGGTGGAGATGCCGTCGGCACACACG, for which the binding signal (log2 normalized intensity) was -1.08.

For TCATTCTCTGTTGCATGGTTGACATACTTC, the binding signal (log2 normalized intensity) is 1.38.

Regarding GCTGGTTTGCCATTTGGAGAGAGTTTGGCC, the binding signal (log2 normalized intensity) was found to be 1.78.

On to TAGGAATTCCAAGAAGGCAGACTCAAGATA, for which the binding signal (log2 normalized intensity) was -1.08.

In the case of TTCACTTTCTCTTATAGCTCAACCCCCAAA, the binding signal (log2 normalized intensity) turned out to be 5.3.

As for AAAAGTAGCTGTTGGAATTTGGTCACAGAA, the binding signal (log2 normalized intensity) was determined as 2.34.

Consider TTGCCCTTAAGCAGCATGTAGTTTAGTTGG, for which the binding signal (log2 normalized intensity) was found to be 2.64.

Turning to GGAATTGGGAGGACAGATAAGGTCTGCTGA, the binding signal (log2 normalized intensity) was -1.04.

Take ATGGGGGAGCCACTGCAGCTTTCTGAGTAG: the binding signal (log2 normalized intensity) is -1.04.

Consider TAGCTTGGTTTTTCTGGGACCAAGGGTCAG, for which the binding signal (log2 normalized intensity) turned out to be 4.01.

Consider TCTGAAGGGAGGGCCAAGCCCTCCATCCAA, for which the binding signal (log2 normalized intensity) was -1.06.

In the case of TAGAGGAGCCAGAGGGGCCAGGAACGTCAC, the binding signal (log2 normalized intensity) is -1.14.

As to CTGGGACTTCAAAGCGCAGCGCGGGGCTCA, the binding signal (log2 normalized intensity) was -1.26.

Consider CGTAAGGGTCTGACCTGGCTGCTTGCCATG, for which the binding signal (log2 normalized intensity) is -0.721.

For the sequence GTGTTCCCACAGTGCCCTCTATTGGCTGTT, the binding signal (log2 normalized intensity) worked out at 2.26.

Consider CCAGCTAGAAGCAGTGGGACAAAGGTCACA, for which the binding signal (log2 normalized intensity) amounted to 6.15.

As to TTCACTCCCCTGACAGCATGTTCGGCTGAG, the binding signal (log2 normalized intensity) was 1.64.

For the sequence TGGTATTTAAGGTCACATGCCTAGGTAAGC, the binding signal (log2 normalized intensity) turned out to be 0.0916.

Regarding CCCTGCAATTTGATTTGTATGATCTTGGGT, the binding signal (log2 normalized intensity) came out at 1.89.

As to GAGGAACAGGTGGGGGTAAACATAGCAGAA, the binding signal (log2 normalized intensity) was -1.14.

For GGCAATTTCCCTGGTCGACCTCCCCGTCAC, the binding signal (log2 normalized intensity) worked out at 2.62.

With CCCTGAGTAGTTCTTCTGGTTAGTTTTTCA, the binding signal (log2 normalized intensity) stood at 1.22.

In the case of ACCGCCATAACTCAGCGGGAGGCAAGATAA, the binding signal (log2 normalized intensity) is -1.07.

For CACCTCTTCCAGAGTTCAGAGGAACTTTAT, the binding signal (log2 normalized intensity) came to 0.543.

Consider GACCTTAGTACTCTGCCATGTGCTATTCTG, for which the binding signal (log2 normalized intensity) worked out at 2.37.

On to TGAGATAGGAGGTCAGCACAAGATACAGCT, for which the binding signal (log2 normalized intensity) was -1.11.

For GGAGAGAAAAGCAAGATTGGGAGCTGGGAG, the binding signal (log2 normalized intensity) is -1.1.

GTTCCTGCCTGGAGCCACTGAAGTGAGTTA: the binding signal (log2 normalized intensity) is -0.826.

TAAAGCAGAGGGCTGCTTGCAGGAGGCCGG: the binding signal (log2 normalized intensity) was -1.21.

As to GTGACCCGTGACCCTCAGGAACCAAGCATT, the binding signal (log2 normalized intensity) was determined as 1.53.

With TTTCAGTGCCCTCATAAGAGACTTTGCCCT, the binding signal (log2 normalized intensity) came to 6.34.

On to GTAGCTTCAAACCAGTTATTCCAAGATCCA, for which the binding signal (log2 normalized intensity) was -1.24.

As to TTTCTCCTCTCTGGGCTTCCATTGTGATTC, the binding signal (log2 normalized intensity) was 1.02.

Consider GGAGGTTATCTTGGGGCTAATGTCTCTCTG, for which the binding signal (log2 normalized intensity) is 1.01.

With TGTTTATCTTACAGGCTTATACGTGGAAGA, the binding signal (log2 normalized intensity) was found to be 1.46.

As for GGGTCAAAGCCCAGGAGAGCAAAAAGGGCC, the binding signal (log2 normalized intensity) is -1.13.

On to GTGTTTATAAAGTTGGGAAAAGTAACACAG, for which the binding signal (log2 normalized intensity) amounted to 0.914.

In the case of TCATGGGCCAAAGTTTGTTTCTTATCACAC, the binding signal (log2 normalized intensity) came out at 1.6.

Take TTCAGTCTAAATGATGGCCAGGGAGTACAC: the binding signal (log2 normalized intensity) amounted to 1.28.

On to CCGGACTCTGCCCCACAATTCTTGGATCTC, for which the binding signal (log2 normalized intensity) was determined as 1.5.

Regarding GGAATCCTCCTAAGTAGCCAAGATTACAGC, the binding signal (log2 normalized intensity) was -1.17.

As to CTCTCCCCAGTTCAAAGGTTAAGACTTTGA, the binding signal (log2 normalized intensity) turned out to be 4.74.

With GACCCTGGCCGGAAACTCCGCCCCATTGTC, the binding signal (log2 normalized intensity) was determined as 2.06.

For the sequence GCAGGTAGGGGTGGGATGGGGAGCAGTGGG, the binding signal (log2 normalized intensity) was -1.19.

In the case of ATTAACCTTTGAGCTGGGTGGCCCTCTCCC, the binding signal (log2 normalized intensity) was determined as 2.92.

CCCTCAGCAAACCTTCTGGCAGTGGGAGTA: the binding signal (log2 normalized intensity) is -0.388.

Consider AGGGGCAGGGTTCACATAGCCACCAGGGCC, for which the binding signal (log2 normalized intensity) was -1.12.

As to GTGAATAGCACTGACCAGCTCCAAAGTCCG, the binding signal (log2 normalized intensity) came out at 2.89.

Take TTGGACATGTAACTGCTATTGGTTGTCAGA: the binding signal (log2 normalized intensity) was found to be 1.71.

Turning to CTGTCCATCTTTTGCCCCTCTTATGCCCCT, the binding signal (log2 normalized intensity) was 5.39.

For the sequence AGAACCTTGGAGGCGGCGGCTCCGGGAGCT, the binding signal (log2 normalized intensity) was -1.1.

On to GGGGGACTTCAAAAGCCGGGGAAAGGGAAA, for which the binding signal (log2 normalized intensity) was -1.16.

Take TTCGGGAGACATGTGGCCTTTGGTACAGGG: the binding signal (log2 normalized intensity) is 2.63.

Consider TATTTGGATAATGTGCCCTTTGTACCTGGG, for which the binding signal (log2 normalized intensity) worked out at 7.01.

On to CTGGGTTCCAAAAGGCACATAGATTCCCAG, for which the binding signal (log2 normalized intensity) is -1.2.

Take AGAGGGTTAACCCCTATTAACCAAAGCTAC: the binding signal (log2 normalized intensity) is -1.03.

GTGACTCTAGGAACCTTTCTCCATACCTCT: the binding signal (log2 normalized intensity) was -0.999.

Take CTCTTTCTAGGTCACCACCTTTTTTGGCCT: the binding signal (log2 normalized intensity) amounted to 1.97.

In the case of CCAGTCAGAATCTCTCTGTAGGTAAAGACT, the binding signal (log2 normalized intensity) was -1.05.

In the case of CCTTGTTGCCCACCCCCCAAGTAGAGAGCA, the binding signal (log2 normalized intensity) was 4.85.

As for AATAATAGTTGACCTTTGAGAACCTCCCAT, the binding signal (log2 normalized intensity) stood at 4.08.

In the case of ATGCCTCACCTGGCAAGGCAGCCTCAGCCA, the binding signal (log2 normalized intensity) is -0.986.

In the case of TCTAGAGTCTGACTACTTCTCACCACCTCT, the binding signal (log2 normalized intensity) is -1.15.

Regarding GTGTGCAATTAGAGCAAAGGTTACTGCAGA, the binding signal (log2 normalized intensity) was 2.62.

As for GTCAAAGGGTACAAATTCCAGAGAGGGGCC, the binding signal (log2 normalized intensity) stood at 0.929.

For the sequence ACAGGGTGTGGCTTCCAAGGGGAATGTGGA, the binding signal (log2 normalized intensity) is -0.683.

TCTTTTTAATCAATAATCTTTGCCCTTGAA: the binding signal (log2 normalized intensity) stood at 2.63.

As to GAGTCCAGTGAACAAAACATGGATTTTGGA, the binding signal (log2 normalized intensity) stood at 1.62.
